Results on 5 substances are retold here after PMC9747930.

Chains of the proteins cited; added tags and fusions are not shown.
UniProt Q8K1M6: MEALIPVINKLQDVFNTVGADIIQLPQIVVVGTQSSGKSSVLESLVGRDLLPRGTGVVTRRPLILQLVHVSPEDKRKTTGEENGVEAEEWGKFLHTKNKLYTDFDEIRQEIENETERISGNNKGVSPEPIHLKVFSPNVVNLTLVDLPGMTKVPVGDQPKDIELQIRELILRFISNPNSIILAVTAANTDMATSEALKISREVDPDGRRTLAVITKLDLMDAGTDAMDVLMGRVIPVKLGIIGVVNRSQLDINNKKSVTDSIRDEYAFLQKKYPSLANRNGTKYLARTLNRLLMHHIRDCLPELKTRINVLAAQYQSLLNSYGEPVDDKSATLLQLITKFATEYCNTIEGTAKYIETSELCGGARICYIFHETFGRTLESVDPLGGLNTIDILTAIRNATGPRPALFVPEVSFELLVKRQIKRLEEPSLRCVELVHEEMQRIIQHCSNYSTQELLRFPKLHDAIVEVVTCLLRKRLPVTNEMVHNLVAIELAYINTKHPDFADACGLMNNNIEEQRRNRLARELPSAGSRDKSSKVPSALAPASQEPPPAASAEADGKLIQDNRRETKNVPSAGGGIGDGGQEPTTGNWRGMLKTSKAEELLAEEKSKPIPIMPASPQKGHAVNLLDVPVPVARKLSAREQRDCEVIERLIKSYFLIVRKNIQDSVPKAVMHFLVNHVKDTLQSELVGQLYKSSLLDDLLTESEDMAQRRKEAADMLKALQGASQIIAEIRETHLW
UniProt Q8BZQ7: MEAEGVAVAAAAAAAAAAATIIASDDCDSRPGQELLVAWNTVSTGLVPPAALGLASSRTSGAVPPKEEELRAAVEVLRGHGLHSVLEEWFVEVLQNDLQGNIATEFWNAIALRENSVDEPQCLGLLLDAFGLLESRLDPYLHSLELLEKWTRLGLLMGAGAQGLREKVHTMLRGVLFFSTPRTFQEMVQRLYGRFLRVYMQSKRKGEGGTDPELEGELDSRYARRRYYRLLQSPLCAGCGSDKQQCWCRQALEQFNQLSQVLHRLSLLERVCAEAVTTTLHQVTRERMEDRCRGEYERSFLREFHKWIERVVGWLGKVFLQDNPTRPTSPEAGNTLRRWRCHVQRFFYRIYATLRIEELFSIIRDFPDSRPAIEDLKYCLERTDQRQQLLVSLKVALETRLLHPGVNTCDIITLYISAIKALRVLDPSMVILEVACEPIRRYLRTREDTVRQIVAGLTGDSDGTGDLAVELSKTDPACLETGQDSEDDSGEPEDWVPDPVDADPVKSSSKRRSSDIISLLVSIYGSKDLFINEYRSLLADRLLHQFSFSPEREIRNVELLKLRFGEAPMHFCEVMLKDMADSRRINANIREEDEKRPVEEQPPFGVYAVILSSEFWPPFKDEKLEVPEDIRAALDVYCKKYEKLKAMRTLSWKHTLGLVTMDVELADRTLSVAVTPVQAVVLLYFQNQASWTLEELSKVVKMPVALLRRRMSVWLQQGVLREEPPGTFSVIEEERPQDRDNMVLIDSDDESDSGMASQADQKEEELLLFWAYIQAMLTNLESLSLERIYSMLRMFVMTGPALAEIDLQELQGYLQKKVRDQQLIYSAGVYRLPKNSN
UniProt Q9CPX9: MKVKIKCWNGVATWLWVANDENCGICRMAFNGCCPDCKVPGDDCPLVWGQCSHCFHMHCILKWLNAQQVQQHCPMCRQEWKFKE

Results are given in words; binding and its absence hold for the method and conditions named. Binding seen in cells or lysates may run through a third protein. Some binding calls cover weakened binding; strength is not graded here. For some assays here: Where a sequence is shown, tags or fusion partners need not be part of it.

In assay [1] the target is Dynamin-related protein 1 (DRP1) (mouse (endogenous in oocytes)) (UniProt Q8K1M6). As to the kind of experiment: co-IP; lysate of 1000 mouse oocytes in IP buffer (20 mM Tris-HCl, 10 mM EDTA, 1 mM EGTA, 150 mM NaCl, 0.05% Triton X-100, 0.05% NP-40); antibody on protein A&G agarose beads, 4 °C overnight; endogenous proteins, immunoblot.
For assay [2], the target named is Centromere protein F (CENP-F) (mouse (endogenous in oocytes)) (UniProt Q155P7). The description is as above.
For assay [3], the target named is T1, eGFP-CENP-F^ΔC/N (964-1983) (mouse) (UniProt Q155P7).
T1 sequence: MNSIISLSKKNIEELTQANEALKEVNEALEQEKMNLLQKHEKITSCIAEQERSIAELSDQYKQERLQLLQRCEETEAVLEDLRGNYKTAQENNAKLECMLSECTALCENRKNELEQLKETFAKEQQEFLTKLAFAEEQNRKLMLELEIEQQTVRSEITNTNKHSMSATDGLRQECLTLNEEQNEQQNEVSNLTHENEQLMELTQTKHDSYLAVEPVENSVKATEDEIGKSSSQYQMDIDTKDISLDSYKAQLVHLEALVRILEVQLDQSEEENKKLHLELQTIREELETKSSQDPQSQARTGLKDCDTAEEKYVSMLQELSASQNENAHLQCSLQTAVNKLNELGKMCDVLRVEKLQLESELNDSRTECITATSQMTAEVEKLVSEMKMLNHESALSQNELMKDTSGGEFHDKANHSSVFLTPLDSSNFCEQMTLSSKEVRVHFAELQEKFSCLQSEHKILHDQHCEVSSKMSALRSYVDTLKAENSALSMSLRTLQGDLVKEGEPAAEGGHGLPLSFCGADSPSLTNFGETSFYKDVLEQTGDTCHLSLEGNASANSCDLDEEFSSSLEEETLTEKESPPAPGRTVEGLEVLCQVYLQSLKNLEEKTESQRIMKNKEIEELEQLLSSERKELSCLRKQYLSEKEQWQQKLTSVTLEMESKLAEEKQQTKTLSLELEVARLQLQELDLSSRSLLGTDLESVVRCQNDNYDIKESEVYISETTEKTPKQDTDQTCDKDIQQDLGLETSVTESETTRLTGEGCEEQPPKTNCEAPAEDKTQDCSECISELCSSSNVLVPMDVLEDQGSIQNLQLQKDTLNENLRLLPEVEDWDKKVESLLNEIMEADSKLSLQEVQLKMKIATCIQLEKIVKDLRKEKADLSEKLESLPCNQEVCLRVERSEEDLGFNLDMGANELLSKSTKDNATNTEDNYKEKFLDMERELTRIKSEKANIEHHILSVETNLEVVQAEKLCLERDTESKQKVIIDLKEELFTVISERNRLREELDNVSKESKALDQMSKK
As to the kind of experiment: co-IP; HEK-293 cells co-transfected for 48 h with eGFP-Cenp-f fragment and cMyc-Drp1; lysates incubated with anti-eGFP; immunoblot with anti-eGFP and anti-cMyc. A general note: Immunoblotting shows a protein as a band on a membrane.

Turning to APC2 (from UniProt Q8BZQ7 1-837), the binding result in assay [1] is recorded as “binds”.
Still for that read-out and setting: the result for APC11 (from UniProt Q9CPX9 1-84) reads “no binding”; that for “Centromere protein F (CENP-F) (from UniProt Q155P7 1-2997)”, “binds”.
Consider “Dynamin-related protein 1 (DRP1) (from UniProt Q8K1M6 1-736)”, for which the binding entry in assay [2] is “binds”.
On to cMyc-DRP1 (from UniProt Q8K1M6 1-736), for which the binding entry in assay [3] is listed as “binds”.
